Where two headings read alike, the source gives them in different places. Results are given in words; binding and its absence hold for the method and conditions named. In cells and extracts the contact can be indirect. Some entries that bind do so weakly or less than the wild type. For some of these results: Where a sequence is shown, tags or fusion partners need not be part of it.
Columns and labels:
[1] = target: T1, Flag-ZDHHC6 (3×Flag, pcDNA3.4), expressed in CRC cells (human) (UniProt Q9H6R6); assay: co-IP; Flag-ZDHHC6 and His-PPARγ overexpressed in HCT116, Caco-2, SNU-C2A and HT-29 for 24 h; lysates immunoprecipitated with Flag and/or His antibodies, blotted with His or Flag antibodies
T1 sequence: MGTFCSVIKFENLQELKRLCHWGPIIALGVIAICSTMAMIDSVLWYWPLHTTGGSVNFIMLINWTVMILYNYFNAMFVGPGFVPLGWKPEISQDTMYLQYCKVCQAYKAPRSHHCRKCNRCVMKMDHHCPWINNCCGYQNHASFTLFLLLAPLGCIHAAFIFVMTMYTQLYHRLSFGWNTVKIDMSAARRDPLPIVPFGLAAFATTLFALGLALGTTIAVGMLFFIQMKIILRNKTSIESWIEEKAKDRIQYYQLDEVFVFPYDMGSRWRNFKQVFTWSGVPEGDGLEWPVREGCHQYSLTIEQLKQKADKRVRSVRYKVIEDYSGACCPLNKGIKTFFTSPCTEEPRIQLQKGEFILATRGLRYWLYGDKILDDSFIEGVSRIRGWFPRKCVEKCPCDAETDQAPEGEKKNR

Sequences of proteins named here, by UniProt entry; tags and fusion partners are left off. A change or cut given only in a name is not applied to a line headed by its entry.
UniProt Q03181: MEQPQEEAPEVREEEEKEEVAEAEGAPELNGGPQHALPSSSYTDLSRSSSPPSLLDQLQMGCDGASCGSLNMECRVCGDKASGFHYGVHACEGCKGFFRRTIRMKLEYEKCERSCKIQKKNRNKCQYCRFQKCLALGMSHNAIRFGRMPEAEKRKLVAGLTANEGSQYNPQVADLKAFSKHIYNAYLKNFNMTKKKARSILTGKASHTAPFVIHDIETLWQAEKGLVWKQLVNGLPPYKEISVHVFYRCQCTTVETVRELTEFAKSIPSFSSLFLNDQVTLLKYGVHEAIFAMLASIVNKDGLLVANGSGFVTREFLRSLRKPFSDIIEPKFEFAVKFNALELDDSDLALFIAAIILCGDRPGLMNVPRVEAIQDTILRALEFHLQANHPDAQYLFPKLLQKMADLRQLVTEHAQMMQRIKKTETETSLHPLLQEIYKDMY

[2] = target: T2, HA-ZDHHC6 (3×HA, pcDNA3.4) (human) (UniProt Q9H6R6); assay: co-IP; PPARγ and HA-ZDHHC6 co-transfected; IP of HA; Caco-2 by the text, HCT116 by the legend
T2 sequence: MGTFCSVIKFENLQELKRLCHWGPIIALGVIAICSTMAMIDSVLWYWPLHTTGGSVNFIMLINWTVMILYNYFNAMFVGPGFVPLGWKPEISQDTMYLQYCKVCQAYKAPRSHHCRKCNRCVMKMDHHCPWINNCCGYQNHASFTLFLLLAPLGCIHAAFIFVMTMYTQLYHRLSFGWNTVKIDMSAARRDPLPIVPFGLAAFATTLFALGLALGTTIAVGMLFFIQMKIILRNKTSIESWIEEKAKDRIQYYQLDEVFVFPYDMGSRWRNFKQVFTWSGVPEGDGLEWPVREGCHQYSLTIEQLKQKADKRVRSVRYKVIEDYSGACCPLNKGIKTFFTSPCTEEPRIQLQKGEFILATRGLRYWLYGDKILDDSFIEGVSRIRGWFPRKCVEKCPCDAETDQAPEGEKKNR

[3] = target: T3, Zinc finger DHHC-type palmitoyltransferase 6 (ZDHHC6), endogenous (human (endogenous in HCT116, SNU-C2A, SW48, HT-29, LS1034, Caco-2)) (UniProt Q9H6R6); assay: co-IP; endogenous proteins; lysates (E1A lysis buffer) of HCT116 (Fig. 5B), SNU-C2A, SW48, HT-29, LS1034 and Caco-2 (Fig. 5C) immunoprecipitated with ZDHHC6 or IgG antibodies, western blot; mutual co-IP in HCT116 (Fig. 7F)
T3 sequence: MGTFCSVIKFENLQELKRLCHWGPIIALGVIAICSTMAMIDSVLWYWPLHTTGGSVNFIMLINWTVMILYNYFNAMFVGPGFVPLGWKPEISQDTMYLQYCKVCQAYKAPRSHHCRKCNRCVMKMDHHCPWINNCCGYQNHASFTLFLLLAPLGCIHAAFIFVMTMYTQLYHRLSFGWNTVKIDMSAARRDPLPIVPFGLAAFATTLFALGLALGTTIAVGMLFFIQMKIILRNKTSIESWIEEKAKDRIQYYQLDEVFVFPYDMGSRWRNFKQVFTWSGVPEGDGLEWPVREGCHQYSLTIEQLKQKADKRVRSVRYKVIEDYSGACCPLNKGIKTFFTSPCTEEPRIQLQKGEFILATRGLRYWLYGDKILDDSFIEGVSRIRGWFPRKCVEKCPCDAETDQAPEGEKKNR

[4] = target: Peroxisome proliferator-activated receptor gamma (PPARγ), endogenous (human (endogenous in HCT116, SNU-C2A, SW48, HT-29, LS1034, Caco-2)) (UniProt P37231); assay: as above
[5] = target: His-PPARγ, expressed in CRC cells (human) (UniProt P37231); assay: co-IP; Flag-ZDHHC6 and His-PPARγ overexpressed in HCT116, Caco-2, SNU-C2A and HT-29 for 24 h; lysates immunoprecipitated with Flag and/or His antibodies, blotted with His or Flag antibodies
[6] = target: T3, Zinc finger DHHC-type palmitoyltransferase 6 (ZDHHC6), endogenous (human (endogenous in HCT116, SNU-C2A, SW48, HT-29, LS1034, Caco-2)); assay: co-IP; endogenous proteins; lysates (E1A lysis buffer) of HCT116 (Fig. 5B), SNU-C2A, SW48, HT-29, LS1034 and Caco-2 (Fig. 5C) immunoprecipitated with ZDHHC6 or IgG antibodies, western blot; mutual co-IP in HCT116 (Fig. 7F); remark: listed apart in the source

His-PPARγ, expressed in CRC cells (from UniProt P37231 1-505)
binding [1]: binds

PPARγ co-transfected with HA-ZDHHC6 (from UniProt P37231 1-505)
binding [2]: binds

PPARδ, endogenous (from UniProt Q03181 1-441)
binding [3]: no binding

Peroxisome proliferator-activated receptor gamma (PPARγ), endogenous (from UniProt P37231 1-505)
binding [3]: binds

B1: Zinc finger DHHC-type palmitoyltransferase 6 (ZDHHC6), endogenous (enzyme, UniProt Q9H6R6 1-413)
chain: MGTFCSVIKFENLQELKRLCHWGPIIALGVIAICSTMAMIDSVLWYWPLHTTGGSVNFIMLINWTVMILYNYFNAMFVGPGFVPLGWKPEISQDTMYLQYCKVCQAYKAPRSHHCRKCNRCVMKMDHHCPWINNCCGYQNHASFTLFLLLAPLGCIHAAFIFVMTMYTQLYHRLSFGWNTVKIDMSAARRDPLPIVPFGLAAFATTLFALGLALGTTIAVGMLFFIQMKIILRNKTSIESWIEEKAKDRIQYYQLDEVFVFPYDMGSRWRNFKQVFTWSGVPEGDGLEWPVREGCHQYSLTIEQLKQKADKRVRSVRYKVIEDYSGACCPLNKGIKTFFTSPCTEEPRIQLQKGEFILATRGLRYWLYGDKILDDSFIEGVSRIRGWFPRKCVEKCPCDAETDQAPEGEKKNR
binding [4]: binds

B2: Flag-ZDHHC6 (3×Flag, pcDNA3.4), expressed in CRC cells (enzyme, UniProt Q9H6R6 1-413)
chain: MGTFCSVIKFENLQELKRLCHWGPIIALGVIAICSTMAMIDSVLWYWPLHTTGGSVNFIMLINWTVMILYNYFNAMFVGPGFVPLGWKPEISQDTMYLQYCKVCQAYKAPRSHHCRKCNRCVMKMDHHCPWINNCCGYQNHASFTLFLLLAPLGCIHAAFIFVMTMYTQLYHRLSFGWNTVKIDMSAARRDPLPIVPFGLAAFATTLFALGLALGTTIAVGMLFFIQMKIILRNKTSIESWIEEKAKDRIQYYQLDEVFVFPYDMGSRWRNFKQVFTWSGVPEGDGLEWPVREGCHQYSLTIEQLKQKADKRVRSVRYKVIEDYSGACCPLNKGIKTFFTSPCTEEPRIQLQKGEFILATRGLRYWLYGDKILDDSFIEGVSRIRGWFPRKCVEKCPCDAETDQAPEGEKKNR
binding [5]: binds

B3: PPARα, endogenous (protein, UniProt Q07869 1-468)
chain: MVDTESPLCPLSPLEAGDLESPLSEEFLQEMGNIQEISQSIGEDSSGSFGFTEYQYLGSCPGSDGSVITDTLSPASSPSSVTYPVVPGSVDESPSGALNIECRICGDKASGYHYGVHACEGCKGFFRRTIRLKLVYDKCDRSCKIQKKNRNKCQYCRFHKCLSVGMSHNAIRFGRMPRSEKAKLKAEILTCEHDIEDSETADLKSLAKRIYEAYLKNFNMNKVKARVILSGKASNNPPFVIHDMETLCMAEKTLVAKLVANGIQNKEAEVRIFHCCQCTSVETVTELTEFAKAIPGFANLDLNDQVTLLKYGVYEAIFAMLSSVMNKDGMLVAYGNGFITREFLKSLRKPFCDIMEPKFDFAMKFNALELDDSDISLFVAAIICCGDRPGLLNVGHIEKMQEGIVHVLRLHLQSNHPDDIFLFPKLLQKMADLRQLVTEHAQLVQIIKKTESDAALHPLLQEIYRDMY
binding [6]: no binding
